Reference: patent US10759803B2, “Asparagine endopeptidase (AEP) inhibitors for managing cancer and compositions related thereto” (priority 2014, dated 2020)
Like-named read-outs stand apart in the source and are kept apart here. Values belong to the compound of their own block, whether it stands above or below them.

Experiments:
[1] = target: Cathepsin-L (Homo sapiens, UniProt P07711); assay: Specificity assay against Cathepsin-L; assay type: biochemical; settings: one of the tested cysteine proteases
Cathepsin-L, sequence (P07711 114-333, species assumed): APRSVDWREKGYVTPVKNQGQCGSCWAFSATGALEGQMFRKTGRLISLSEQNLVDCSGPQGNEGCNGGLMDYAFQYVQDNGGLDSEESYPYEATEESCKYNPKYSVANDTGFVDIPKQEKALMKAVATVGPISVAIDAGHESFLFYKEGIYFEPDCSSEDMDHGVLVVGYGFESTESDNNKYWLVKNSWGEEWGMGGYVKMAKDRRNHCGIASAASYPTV

[2] = target: Cathepsin-S (Homo sapiens, UniProt P25774); assay: Specificity assay against Cathepsin-S; assay type: biochemical
Cathepsin-S, sequence (P25774 115-331, species assumed): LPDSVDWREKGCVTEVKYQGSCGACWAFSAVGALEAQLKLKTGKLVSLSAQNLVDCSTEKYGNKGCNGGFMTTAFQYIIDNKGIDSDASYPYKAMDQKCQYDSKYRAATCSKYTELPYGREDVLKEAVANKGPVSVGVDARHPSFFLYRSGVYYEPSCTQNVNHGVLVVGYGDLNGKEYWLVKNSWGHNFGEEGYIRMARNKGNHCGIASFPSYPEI
Protocol: (§1) Purified recombinant enzyme was incubated with various concentrations of inhibitor in appropriate assay buffers in the presence of increasing concentrations of inhibitor. The formation of fluorescent product was monitored in duplicate reactions and the data was fit to appropriate equations to calculate the IC50 values.
(§2) To identify small-molecule inhibitors of AEP, a high-throughput screen was designed in conjunction with the Emory Chemical Biology Discovery Center. The screen incorporated mouse kidney lysates to assay a 54,384 compound library. […] Additional structural analysis and grouping allowed the compounds to be sorted into 8 distinct backbone families. […] The specificity of the compounds was also determined using four major cysteine proteases (FIG. 2).

[3] = target: T1, Caspase-3 (Homo sapiens, UniProt P42574); assay: Specificity assay against Caspase-3; assay type: biochemical; settings: one of the tested cysteine proteases
T1 sequence (P42574 29-175 limits assumed): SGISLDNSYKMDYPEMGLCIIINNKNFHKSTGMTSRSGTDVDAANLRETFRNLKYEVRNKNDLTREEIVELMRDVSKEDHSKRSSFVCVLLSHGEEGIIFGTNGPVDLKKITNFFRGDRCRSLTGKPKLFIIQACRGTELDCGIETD
T1 sequence (P42574 176-277 limits assumed): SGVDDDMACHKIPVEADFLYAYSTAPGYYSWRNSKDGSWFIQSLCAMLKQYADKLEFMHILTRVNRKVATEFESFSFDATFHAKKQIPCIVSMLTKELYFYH
Protocol: as §1, §2

[4] = target: Caspase-8 (Homo sapiens, UniProt Q14790); assay: Specificity assay against Caspase-8; assay type: biochemical; settings: one of the tested cysteine proteases
Caspase-8, sequence (Q14790 217-374 limits assumed, species assumed): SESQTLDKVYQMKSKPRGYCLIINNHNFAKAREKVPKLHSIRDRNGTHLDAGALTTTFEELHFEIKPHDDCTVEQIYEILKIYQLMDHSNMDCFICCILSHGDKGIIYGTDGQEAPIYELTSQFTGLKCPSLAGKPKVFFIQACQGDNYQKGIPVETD
Caspase-8, sequence (Q14790 385-479 limits assumed, species assumed): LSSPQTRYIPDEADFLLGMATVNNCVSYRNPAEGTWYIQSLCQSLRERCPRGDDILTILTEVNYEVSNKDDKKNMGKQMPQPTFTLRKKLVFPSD
Protocol: as §1, §2

[5] = target: T2, AEP (Homo sapiens, UniProt Q99538); assay: SAR analysis, residual AEP activity; assay type: biochemical; settings: 50 nM purified active AEP, 5 μM substrate peptide
T2 construct: tested with purified active AEP, IC50 values for the top 8 candidates were found
T2 sequence (Q99538 18-323 limits assumed): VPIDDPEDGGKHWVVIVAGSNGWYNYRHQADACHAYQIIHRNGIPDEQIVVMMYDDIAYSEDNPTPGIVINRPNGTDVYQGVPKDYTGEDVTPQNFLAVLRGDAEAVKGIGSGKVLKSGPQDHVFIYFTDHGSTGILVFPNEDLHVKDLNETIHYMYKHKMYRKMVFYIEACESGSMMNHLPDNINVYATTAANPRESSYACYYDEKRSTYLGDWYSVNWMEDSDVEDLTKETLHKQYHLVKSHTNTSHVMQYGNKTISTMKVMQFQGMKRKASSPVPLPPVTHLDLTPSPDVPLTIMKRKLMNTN
From the text: A. The structures and percentages of residual AEP activity of derivatives, in which substitutions were made to the nitrogen in the R7 position. B. The structures and percentages of residual AEP activity of the compound 38 derivatives, in which substitutions were made to the nitrogens at the R7 and R1 positions. C. The structures and percentages of residual AEP activity of the compound 38 derivatives, in which substitutions were made at the R7, R1 and R6 position in xanthine ring.
In an effort to improve the drug ability of the compound, structure-activity relationship studies were performed with various derivatives. Each compound was incubated with 50 nM purified, active AEP and 5 μM substrate peptide and the percentage of residual enzyme activity was calculated compared to a control reaction. […] Conversely, the observed alterations made to the thiol group of compound 38 had effects on its inhibitory activity (FIG. 9C).

[6] = system: endogenous MMP-2 cleavage; assay: Gelatin zymography, endogenous MMP-2 cleavage in MDA-MB-231 cells; assay type: cell-based, human; settings: MDA-MB-231 cells, 1, 2, 5 and 10 μM
[7] = system: MDA-MB-231 cells in the mammary fat pad of nude mice; assay: In vivo spontaneous metastasis assay (breast-to-lung)
[8] = human, microsomes, 0.5 h
[9] = mouse, microsomes, 30 min

IC50 [1]: > 100 µM
IC50 [2]: > 100 µM
IC50 [3]: > 100 µM
IC50 [4]: > 100 µM
SMILES: CN(C)c1ccc(N2C(=O)C=CC2=O)cc1 [Compound 22]

SMILES: Cn1c(=O)[nH]c(=O)c2c1nc(S)n2CC(O)COc1ccccc1 (stereo not shown) [Compound 38D-11]
loss of activity relative to parent compound 38 [5]: greater than a two-fold loss in activity

SMILES: CCn1c(=O)c2c(nc(S)n2C)n(C)c1=O [Compound 38D-21]
endogenous MMP-2 cleavage [6]: inhibited in a dose-dependent manner
animals in which metastasis was observed ([7]; 3 mg/kg): 2/6
number of metastatic lung nodules ([7]; 3 mg/kg oral gavage, 42 days): significantly decreased
percentage of mice with metastatic nodules on their lungs ([7]; 3 mg/kg oral gavage, 42 days): 33%
animals in which metastasis was observed ([7]; 10 mg/kg): 1/6
number of metastatic lung nodules ([7]; 10 mg/kg oral gavage, 42 days): almost completely prevented lung metastasis
percentage of mice with metastatic nodules on their lungs ([7]; 10 mg/kg oral gavage, 42 days): 17%
complete blood count (CBC) vs vehicle ([7]; 3 or 10 mg/kg, 42 days): no significant difference
mammary tumor weight or volume vs control ([7]; 3 or 10 mg/kg, 42 days): no significant difference
size of the spleen ([7]; 3 or 10 mg/kg, 42 days): slight increase
toxicity by body weight ([7]; 3 or 10 mg/kg, 42 days): no significant toxicity

Mean Remaining Parent (with NADPH) [8]: 96%
Mean Remaining Parent (NADPH-free) [9]: 100%
Mean Remaining Parent (with NADPH) [9]: 91%
SMILES: CC(=O)CC(c1ccccc1)c1c(O)c2ccccc2oc1=O (stereo not shown) [Warfarin]
